# From the supplement of paper PMC11417369
# The list shows a part of the results.
# Tested on: PfHDP1 homeodomain (GST-tagged)
# Test: gcPBM binding intensity (ln(normalized median fluorescence intensity)); higher = stronger DNA binding
# Method in brief: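 Probes on an Agilent 4 × 180k array were primer-extended, double-stranded and 36 bp long, taken from intergenic genomic regions, with negative controls added. GST-tagged P. falciparum DNA-binding domains from E. coli, about 25 μg on average, were applied to the array for 1 h in 1× PBS containing 1% milk, 0.2 mg/ml BSA, 0.5% salmon testes DNA and 0.03% Triton X-100. Binding intensity, obtained after Alexa488 anti-GST antibody detection and a 488 nm scan, is the highest Masliner-normalised natural-log median intensity across replicate spots of either probe orientation.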
row,Sequence,gcPBM binding intensity (ln)
1,TAAAATTTTTTTGTTTGTACATATATATATATAATA [XGTACX_site5609],6.87
2,TATATATTATACACGTGTACACATTATAACAATATA [XGTACX_site7799],6.82
3,TTTCCCTTAAATTAATGTACATAAATTGAAAATACC [XGTACX_site1602],6.63
4,TTGCCCCAGGAGTTCACACACATAATAGATTGTCAC [CACACA_site726],6.59
5,AAAAAAATAAATAAATACATACATATATATATGTAT [GTGCAC_negctrl_site510],6.13
6,AAAAAAAAAAAACACACACACAAAAAAAAATATATA [CACACA_site1105],6.47
7,AGCAACCCCCTAGCTACACACATATAGATATATATA [CACACA_site951],7.23
8,ACACATGACATCCGTTGTACAATCATCATAAAAATG [XGTACX_site5397],7.09
9,AGCATTTATGAAAAATGTACACACATCAAATGCTTA [XGTACX_site8749],6.48
10,TATAAAAATAATATTACACACATGTAAAATGTCGGT [CACACA_site3264],6.32
11,AAGCTACACATAGATTATTATTAATTTAATGTATAT [CACACA_negctrl_site548],6.19
12,TACGTGAAATTATATACACACATAAATATGTCTGTA [CACACA_site3122],6.39
13,AATTATTAGCGTGGTGTGCACAAAATTATGGACACA,9.8
14,ACAAGCTTTCATAAGGTGCAATGATTTAACAAAAAA [GTGCAC_site9726],8.55
15,AATGTAAAACTAATATGTACATATCTCTAAAGAAAT [XGTACX_site8429],6.63
16,ATTGTCTTCCTTCTGGTGCGATGTATAGGTAAAGAT,7.35
17,CGTACTAACATAAAGACACACACCACATATAATAAA [CACACA_site3603],6.79
18,TGTAGAAATGGGTGCACACACATATATAATATATAT [CACACA_site2507],10.7
19,AACTCATCTTATAATTGTACATATTTATAAAAAGTA [XGTACX_site6522],6.38
20,TTAGGGATGCTGAAATGTACACATTTAAATTATATA [XGTACX_site3000],6.73
21,AAAAAAAAAAAAAAAAAAAAAAAAAAAAAATATATA [GTGCAC_negctrl_site6],7.43
22,AGAAGAAATATGTAAAAAATTTTATATTCACACACA [GTGCAC_negctrl_site441],6.85

row,Sequence,gcPBM binding intensity (ln)
1,CCCATATTATAGGTGTGTACATAAAAGTATATATAA [XGTACX_site3629],6.88
2,AATTTAATTTTTTCGTGTACTTATATAGGAGGTTTT [XGTACX_site8310],6.76
3,CAATTAAAGATATGAACACACATGTGAACTTTCTAT [CACACA_site7796],6.53
4,TTTCTTATCAACCTTTTTTTTTTTTTTTTATTCTTA [TGCATGCA_negctrl_site162],6.06
5,TTTATATATAATGTTGCATGTCAAATTTGTATATGG [TGCATGCA_site246],7.66
6,TGTTCTTATACTAATAGTACTTTTAGGTACTATAAA [XGTACX_site2954],6.13
7,TGTAGACATTAATGTAGTACAATATATATATATATT [XGTACX_site8608],6.62
8,ATATTTTTCCAACATCGTACATTATGAGTCAAAATT [XGTACX_site993],7
9,CCATAAAAAGGTACATGTACAAAAAGCAAAAATATG [XGTACX_site5543],7.26
10,TTTTTCTTTTTTTGGGGTACAGGGAAATCTATATTT [XGTACX_site7025],6.83
11,TCTTAATTTTTGAAGGTACACACTAATATATTAAAT [CACACA_site1191],6.68
12,AAAAAAAAAAAAAAAACACACATACCCATATATTTT [CACACA_site6013],6.6
13,ATGATATGCAATTTAGTGCATAACAAAATTGGTATA,10.5
14,TTGTGTAAATGTTAAGTGCATTTGGTAAAATATAAA [GTGCAC_site9699],9.03
15,TCTCCATCTTATGAGACATGCACTTTTTATTTAATA [TGCATGCA_site121],6.95
16,GTATATATATATATATATATATATATATATATATAT [CACACA_negctrl_site609],9.26
17,AAAAAATAAAAAAGGTGGTCATGTCACAAATACTTT [XGTACX_site7454],6.21
18,TGTGTATACTTGTGTATACCAAATTAAAGACGCTTT [CACACA_negctrl_site1359],6.34
19,TAAAAGTGATATGTTCGTACGTATTTATATGTAATA [XGTACX_site211],6.4
20,AATTTAAAAGCTTGTGGTACTTTTGCTCTTCCTTTG [XGTACX_site3148],6.49
21,TCAACAAATAAACTTTGTACATATATACAAAATATA [XGTACX_site4447],6.27
22,TATGTATTAAATTTTACACACATGATTCTCTATATG [CACACA_site8720],7.09
